Assay results as given in a collection of fitness landscapes (doi:10.1016/j.celrep.2020.107928).
In all, about 81,000 sequences were measured (“one-hybrid fitness for binding parS DNA”: median about -0.17, highest 2% from about 0.51 on). Some of the results follow.

B1: Caulobacter ParB omega fusion; a variant is named by its letters at X, in order, B8GW30 (parent)
chain: MESVVVGEPGMSEGRRGLGRGLSALLGEVDAAPAQAPGEQLGGSREAPIEILQRNPDQPRRTFREEDLEDLSNSIREKGVLQPILVRPSPDTAGEYQIVAGERAWRAAQRAGLKTVPIMVRELDDLAVLEIGIIENVQRADLNVLEEALSYKVLMEKFERTQENIAQTIGKSXSHVANXMRLLXLPDEVQSYLVSGELTAXHARAIAAAADPVALAKQIIEGGLSVRETEALARKAPNLSAGKSKGGRPPRVKDTDTQALESDLSSVLGLDVSIDHRGSTGTLTITYATLEQLDDLCNRLTRGI

Variants of: B1
Assay: one-hybrid fitness for binding parS DNA (scaled: cognate 1, non-cognate 0); higher = stronger binding
Settings: with parS DNA site
In short: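 Caulobacter ParB libraries with four specificity codons randomised were screened by bacterial one-hybrid selection in the E. coli USO strain, using a HIS3 reporter whose site lies 19 bp from the promoter. Selection ran for 48 hours at 37°C on M9 lacking histidine, with 0.1 mM IPTG and 5 mM 3-AT. Plasmids were Illumina-sequenced before and after selection, three replicate libraries were pooled, and variants with under 10 reads were dropped. Fitness is the log change in each variant's read ratio to wild type, rescaled against the cognate and non-cognate sites.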

Row | Variant | one-hybrid fitness for binding parS DNA
1 | AYRR | ≤ 0.2
2 | KRQW | ≤ 0.2
3 | IDMG | ≤ 0.2
4 | WPDG | ≤ 0.2
5 | SFYL | ≤ 0.2
6 | MPCS | ≤ 0.2
7 | HSAI | ≤ 0.2
8 | MTAC | ≤ 0.2
9 | WMAV | ≤ 0.2
10 | FDGR | ≤ 0.2
11 | SRDG | ≤ 0.2
12 | GTPC | ≤ 0.2
13 | HIWG | ≤ 0.2
14 | CKYC | ≤ 0.2
15 | GTTY | ≤ 0.2
16 | LYSR | ≤ 0.2
17 | TEWS | ≤ 0.2
18 | PMGY | ≤ 0.2
19 | SPCF | ≤ 0.2
20 | KVQG | ≤ 0.2
21 | NCSE | ≤ 0.2
22 | YTAY | ≤ 0.2
23 | QQDC | ≤ 0.2
24 | RKSC | 0.812

Row | Variant | one-hybrid fitness for binding parS DNA
25 | KCRD | ≤ 0.2
26 | LMAI | ≤ 0.2
27 | PQRN | ≤ 0.2
28 | QRRQ | ≤ 0.2
29 | ELAF | ≤ 0.2
30 | HINN | ≤ 0.2
31 | ITDY | ≤ 0.2
32 | CSPK | ≤ 0.2
33 | QWYY | ≤ 0.2
34 | SLPG | ≤ 0.2
35 | SFET | ≤ 0.2
36 | TNSS | ≤ 0.2
37 | GMTR | ≤ 0.2
38 | WFQF | ≤ 0.2
39 | QKDC | ≤ 0.2
40 | SANY | ≤ 0.2
41 | KTDV | ≤ 0.2
42 | DLLD | ≤ 0.2
43 | IVTT | ≤ 0.2
44 | GMPG | ≤ 0.2
45 | RMEN | 0.369
46 | QSVG | ≤ 0.2
47 | SPSK | ≤ 0.2
48 | DRDC | ≤ 0.2

Row | Variant | one-hybrid fitness for binding parS DNA
49 | RTFE | ≤ 0.2
50 | YNIY | ≤ 0.2
51 | ALTM | ≤ 0.2
52 | GHHS | ≤ 0.2
53 | FKPR | ≤ 0.2
54 | YGDI | ≤ 0.2
55 | MRDV | ≤ 0.2
56 | WLLG | ≤ 0.2
57 | AGMS | ≤ 0.2
58 | KTRV | ≤ 0.2
59 | HAYF | ≤ 0.2
60 | FSEM | 0.417
61 | SRPM | ≤ 0.2
62 | MGPT | ≤ 0.2
63 | WTVR | ≤ 0.2
64 | HYAS | ≤ 0.2
65 | KRVG | ≤ 0.2
66 | SYQC | ≤ 0.2
67 | VTMQ | ≤ 0.2
68 | YWLS | ≤ 0.2
69 | QQMS | ≤ 0.2
70 | PHFG | ≤ 0.2
71 | HLHN | ≤ 0.2
72 | YKSD | ≤ 0.2

Row | Variant | one-hybrid fitness for binding parS DNA
73 | YRAI | ≤ 0.2
74 | ISSL | ≤ 0.2
75 | HIYC | ≤ 0.2
76 | ASME | ≤ 0.2
77 | MWTV | ≤ 0.2
78 | TTAN | ≤ 0.2
79 | EIGN | ≤ 0.2
80 | ETLW | ≤ 0.2
81 | PDYE | ≤ 0.2
82 | ERIT | ≤ 0.2
83 | QSHM | ≤ 0.2
84 | VTSP | ≤ 0.2
85 | WDKC | ≤ 0.2
86 | QRVD | ≤ 0.2
87 | HDTA | ≤ 0.2
88 | GYER | ≤ 0.2
89 | EAIP | ≤ 0.2
90 | HAVF | ≤ 0.2
91 | TCKI | ≤ 0.2
92 | CVHT | ≤ 0.2
93 | VEKL | ≤ 0.2
94 | PQTN | ≤ 0.2
95 | SNLD | ≤ 0.2
96 | VNRR | ≤ 0.2

Row | Variant | one-hybrid fitness for binding parS DNA
97 | HPVF | ≤ 0.2
98 | TRWA | ≤ 0.2
99 | GRSL | ≤ 0.2
100 | KHLG | ≤ 0.2
101 | CPIR | ≤ 0.2
102 | PATS | ≤ 0.2
103 | WGTS | ≤ 0.2
104 | LMYR | ≤ 0.2
105 | IGKT | ≤ 0.2
106 | WIPV | ≤ 0.2
107 | SHAL | ≤ 0.2
108 | YSVG | ≤ 0.2
109 | PWGR | ≤ 0.2
110 | NDCR | ≤ 0.2
111 | EFPA | ≤ 0.2
112 | RYIS | 0.939
113 | ETLT | ≤ 0.2
114 | HLCF | ≤ 0.2
115 | CSKV | ≤ 0.2
116 | RGVC | 0.445
117 | HPHR | ≤ 0.2
118 | WIGV | ≤ 0.2
119 | MQNF | ≤ 0.2
120 | KYKC | ≤ 0.2

Row | Variant | one-hybrid fitness for binding parS DNA
121 | YVSC | ≤ 0.2
122 | TWNG | ≤ 0.2
123 | MPYR | ≤ 0.2
124 | EHLR | ≤ 0.2
125 | RSSM | 0.327
126 | LWNS | ≤ 0.2
127 | ITWG | ≤ 0.2
128 | QFPA | ≤ 0.2
129 | INLF | 0.225
130 | HQLC | ≤ 0.2
131 | KFTT | ≤ 0.2
132 | LHGL | ≤ 0.2
133 | QIKA | ≤ 0.2
134 | ARTG | ≤ 0.2
135 | CTHG | ≤ 0.2
136 | KPET | ≤ 0.2
137 | GESD | ≤ 0.2
138 | AKLN | ≤ 0.2
139 | MAKD | ≤ 0.2
140 | AINP | ≤ 0.2
141 | MYHL | ≤ 0.2
142 | CGNA | ≤ 0.2
143 | MSWS | ≤ 0.2
144 | RWYM | ≤ 0.2

Row | Variant | one-hybrid fitness for binding parS DNA
145 | ISGL | ≤ 0.2
146 | QMQQ | ≤ 0.2
147 | TDDM | ≤ 0.2
148 | VRVG | ≤ 0.2
149 | CPPK | ≤ 0.2
150 | QVDF | ≤ 0.2
151 | PPIT | ≤ 0.2
152 | VKAP | ≤ 0.2
153 | TERW | ≤ 0.2
154 | AECS | ≤ 0.2
155 | PVTD | ≤ 0.2
156 | KFPR | ≤ 0.2
157 | TRCN | ≤ 0.2
158 | RWIR | ≤ 0.2
159 | AMSA | ≤ 0.2
160 | QGCG | ≤ 0.2
161 | RDFS | ≤ 0.2
162 | RAHN | 0.481
163 | GVHL | ≤ 0.2
164 | MNLG | ≤ 0.2
165 | APLY | ≤ 0.2
166 | YRST | ≤ 0.2
167 | IMQT | ≤ 0.2
168 | EDNK | ≤ 0.2

Row | Variant | one-hybrid fitness for binding parS DNA
169 | ARTT | ≤ 0.2
170 | GTFA | ≤ 0.2
171 | KQLI | ≤ 0.2
172 | ETPR | ≤ 0.2
173 | QMKM | ≤ 0.2
174 | DPVD | ≤ 0.2
175 | LSEF | ≤ 0.2
176 | HSPP | ≤ 0.2
177 | HQMF | ≤ 0.2
178 | LLNM | ≤ 0.2
179 | NTPI | ≤ 0.2
180 | KEGT | ≤ 0.2
181 | KRMK | ≤ 0.2
182 | DQDS | ≤ 0.2
183 | STRY | ≤ 0.2
184 | SNTS | ≤ 0.2
185 | NSDV | ≤ 0.2
186 | PQLE | ≤ 0.2
187 | TCIG | ≤ 0.2
188 | SYRY | ≤ 0.2
189 | SRGP | ≤ 0.2
190 | RMCR | ≤ 0.2
191 | GQGR | ≤ 0.2
192 | SEKS | ≤ 0.2

Row | Variant | one-hybrid fitness for binding parS DNA
193 | INTS | ≤ 0.2
194 | GPIQ | ≤ 0.2
195 | TCPL | ≤ 0.2
196 | PRKV | ≤ 0.2
197 | SKAD | ≤ 0.2
198 | NLLD | ≤ 0.2
199 | PCNY | ≤ 0.2
200 | TRPR | ≤ 0.2
201 | NGWG | ≤ 0.2
202 | LHNF | ≤ 0.2
203 | RQSA | 0.575
204 | QQCM | ≤ 0.2
205 | SSGN | ≤ 0.2
206 | AIRI | ≤ 0.2
207 | VISS | ≤ 0.2
208 | LHTV | ≤ 0.2
209 | EALQ | ≤ 0.2
210 | LFNT | ≤ 0.2
211 | KMDY | ≤ 0.2
212 | ALTG | ≤ 0.2
213 | KLRW | ≤ 0.2
214 | LPVL | ≤ 0.2
215 | AGKK | ≤ 0.2
216 | PRTF | ≤ 0.2

Row | Variant | one-hybrid fitness for binding parS DNA
217 | QCTA | ≤ 0.2
218 | RKRR | ≤ 0.2
219 | HNQG | ≤ 0.2
220 | DLES | ≤ 0.2
221 | MNER | ≤ 0.2
222 | HTCW | ≤ 0.2
223 | LHTN | ≤ 0.2
224 | KPTL | ≤ 0.2
225 | HAVL | ≤ 0.2
226 | TWMI | ≤ 0.2
227 | ADRR | ≤ 0.2
228 | RSTM | 0.318
229 | TLIC | ≤ 0.2
230 | RTCS | 0.99
231 | INTT | ≤ 0.2
232 | MNTF | ≤ 0.2
233 | ARGS | ≤ 0.2
234 | RVFV | ≤ 0.2
235 | TTEL | ≤ 0.2
236 | VDSD | ≤ 0.2
237 | RNNP | ≤ 0.2
238 | TLVE | ≤ 0.2
239 | RYID | ≤ 0.2
240 | HYYC | ≤ 0.2

Row | Variant | one-hybrid fitness for binding parS DNA
241 | VWLN | ≤ 0.2
242 | CEHV | ≤ 0.2
243 | QVGK | ≤ 0.2
244 | YIYT | ≤ 0.2
245 | IQMS | ≤ 0.2
246 | PIHE | ≤ 0.2
247 | HTLV | ≤ 0.2
248 | QKST | ≤ 0.2
249 | THNT | ≤ 0.2
250 | LQNP | ≤ 0.2
251 | PDLI | ≤ 0.2
252 | GSPG | ≤ 0.2
253 | TRYN | ≤ 0.2
254 | SSND | ≤ 0.2
255 | GHYV | ≤ 0.2
256 | ASAI | ≤ 0.2
257 | TGDC | ≤ 0.2
258 | WAMA | ≤ 0.2
259 | HDSS | ≤ 0.2
260 | RTHV | ≤ 0.2
261 | TYQF | ≤ 0.2
262 | GAMR | ≤ 0.2
263 | RKNS | 0.766
264 | QMKP | ≤ 0.2

Row | Variant | one-hybrid fitness for binding parS DNA
265 | PGYV | ≤ 0.2
266 | QVPQ | ≤ 0.2
267 | MQKA | ≤ 0.2
268 | WLKA | ≤ 0.2
269 | RMMT | 0.874
270 | PTCL | ≤ 0.2
271 | FRAL | ≤ 0.2
272 | LWLR | ≤ 0.2
273 | KDKR | ≤ 0.2
274 | QMFL | ≤ 0.2
275 | PAHC | ≤ 0.2
276 | VYSF | ≤ 0.2
277 | SMIY | ≤ 0.2
278 | DQLH | ≤ 0.2
279 | SCSL | ≤ 0.2
280 | WRWC | ≤ 0.2
281 | WWLP | ≤ 0.2
282 | SDPT | ≤ 0.2
283 | AQYC | ≤ 0.2
284 | LETC | ≤ 0.2
285 | NSPM | ≤ 0.2
286 | HVKH | ≤ 0.2
287 | QADN | ≤ 0.2
288 | TFIT | ≤ 0.2

Row | Variant | one-hybrid fitness for binding parS DNA
289 | YGYS | ≤ 0.2
290 | RYVD | ≤ 0.2
291 | GPAN | ≤ 0.2
292 | TCFS | ≤ 0.2
293 | HTGI | ≤ 0.2
294 | FYQC | ≤ 0.2
295 | ENMG | ≤ 0.2
296 | TSRD | ≤ 0.2
297 | QFMY | ≤ 0.2
298 | LMSE | ≤ 0.2
299 | SHPV | ≤ 0.2
300 | ATAY | ≤ 0.2
301 | GASM | ≤ 0.2
302 | PKYL | ≤ 0.2
303 | AWYR | ≤ 0.2
304 | SWIT | ≤ 0.2
305 | TRGV | ≤ 0.2
306 | ALHD | ≤ 0.2
